# Data: ChEMBL document CHEMBL4888484, “Replenishing the malaria drug discovery pipeline: Screening and hit evaluation of the MMV Hit Generation Library 1 (HGL1) against asexual blood stage Plasmodium falciparum ,using a nano luciferase reporter read-out” (2022)
# The campaign covered roughly 150,000 compounds. About 540 (0.36%) showed an effect of 50% or more. Some of the results follow.
# Tested on: Plasmodium falciparum
# Assay: Primary screen in NF54 nanoGlo assay, in single point, at 2uM, 72h; a lower Z score goes with more inhibition
# Format: functional, Erythrocyte
# Conditions: timepoint 72 hour
SMILES,% Inhibition,Z score
COC[C@H]1C[C@@H](NS(=O)(=O)c2ccccc2)[C@H](O)[C@@H]1O,-4%,0.62
CC[C@H]1COCCN1C(=O)c1ccnc(NC)c1,-24%,3.61
Cc1ccc(C(=O)N2CCN(C)CC2)cc1-n1cnc2cccnc21,-5%,0.81
Cc1ccnc(NCCCN2C(=O)COc3ccccc32)n1,-7%,0.75
COc1ccc([C@@H](C)C(=O)N2CCc3[nH]ncc3C2)cc1OC,10%,-1.04
O=C(CCOc1ccc(F)c(Cl)c1)NCc1cccnc1,15%,-2.11
CCOC(=O)N1CCN(C(=O)C[C@]2(c3ccccc3)CC(=O)N(CC3CCCCC3)C2=O)CC1,17%,-2.18
CCS(=O)(=O)Nc1c(C)cccc1F,-2%,0.33
O=C(CCC(=O)N1CCN(c2ccc(Cl)c(Cl)c2)CC1)c1ccccc1,6%,-0.94
O=C(NCCc1ccc2c(c1)OCCO2)[C@H]1CCS(=O)(=O)C1,-15%,2.7
Cn1nc(C(C)(C)C)c2c1NC(=O)C[C@@H]2c1ncc[nH]1,4%,-0.53
Cc1cccc(OC2(C(=O)O)CCN(C/C=C/c3ccccc3)CC2)c1,-14%,2.65
CCC(CC)(CN=C1NCCCCN1)OC,-11%,1.46
NC(=O)[C@H](Cc1ccccc1)n1ccnc1-c1cccc(Cl)c1,-7%,0.8
Cc1csc(C)c1S(=O)(=O)Nc1ncc2c(n1)CCOC2,-7%,0.98
Cc1ccc(/C=C(\C(=O)N2CCC(C)CC2)n2ccccc2=O)cc1,6%,-0.77
CCN(CC(=O)Nc1ccc(NC(C)=O)cc1)C(=O)c1cc2c(s1)CCC2,-5%,0.46
Cc1nc(C(=O)Nc2cccc3[nH]ccc23)c(C(C)C)s1,9%,-1.16
CC(C)(C)c1noc(-c2cccnc2-n2cnc(C(=O)Nc3ccccc3)c2)n1,5%,-0.67
CC1CCC2(CC1)NC(=O)N(Cc1csc(-c3ccco3)n1)C2=O (stereo not drawn),26%,-3.41
Nc1nc2c(c(C(=O)NCCc3nccs3)n1)CCCC2,8%,-1.06
COCCCNC(=O)[C@@H](C#N)C(=O)c1ccc2c(c1)CCC2,-8%,0.97
CC1(C)CN(C(=O)CC2CCNCC2)C[C@@H]1c1ccccc1,-4%,0.61
CC[C@H]1OCC[C@@H]1NC(=O)Nc1cc(Br)cnc1C,-6%,1.04
NC(=O)N1CCC(C(=O)N(Cc2ccccc2)C2CCCCC2)CC1,-7%,0.71
CC1(C)OCC[C@@H]1NC(=O)C12CCC(CC1)C2,-12%,1.89
CCc1nnc(NCc2csc(N(C)C)n2)o1,-18%,1.62

SMILES,% Inhibition,Z score
Cc1csc2c(N3CCC[C@@H]3CN3CCCC3)ncnc12,3%,-0.57
COc1cc(OC)c(NC(=O)C2CCN(c3cc(=O)n(C)c(=O)n3C)CC2)cc1Cl,-6%,1.01
C[C@@](CO)(NCCOCC(F)(F)F)C1CCCCC1,-2%,0.32
Fc1ccc(C(NCCC2CCCO2)c2ccccc2)nc1 (stereo not drawn),-7%,0.94
C#CCN(CC1C(C)=CCCC1C)C1CCS(=O)(=O)C1 (stereo not drawn),3%,-0.34
NC(=O)Cn1ccnc1[C@H]1CCCN(C(=O)C2CCCCCC2)C1,-3%,0.6
CC1(C)C[C@H](NC(=O)c2ccco2)[C@@]2(CCC(=O)NCCN3CCOCC3)CC[C@](C)(O)C[C@@H]12,-7%,1.09
COc1cccc(NC(=O)N2CCCC3CCCC32)c1 (stereo not drawn),-2%,0.21
COc1ccc(S(=O)(=O)N2CCC(c3c(C)n(Cc4c(F)cccc4Cl)c4ccccc34)CC2)cc1,-11%,1.52
CCNC(=O)N1CCc2nc(N3CCN(c4ccccc4)CC3)nc(N(C)C(C)C)c2C1,8%,-1.45
O=C(c1ccsc1)N1C[C@H]2CCCC[C@@]2(C(=O)O)C1,-9%,0.89
CN1CCc2c(CNC(=O)[C@@H]3CCCO3)c3c(c(O)c2C1=O)OCO3,-18%,2.37
O=C(c1ccccc1O)N1CCC2(CCC(O)CC2)CC1,-2%,0.26
CCN(CC)C(=O)c1cnc2snc(C)c2c1N1CCC(C(=O)Nc2cc(F)ccc2F)CC1,6%,-0.96
Cc1cc(C(=O)N2CCC[C@@H](Nc3ncnc4sccc34)C2)on1,-6%,1.28
C=CCN(C(=O)Cc1nnn(C(C)(C)C)n1)C(C)(C)C,-3%,0.36
CC(C)c1noc([C@@H]2CCCN2C(=O)c2cn3c4c(cccc4c2=O)CC3)n1,-5%,0.64
Cn1c(NC2CCCCC2)cc(=O)n(C)c1=O,-11%,2.1
Cc1ccc2c(c1)C(=O)N(CCC1=CCCCC1)C2=O,-10%,1.22
O=C(Nc1cccnc1-n1cccn1)c1cnc2ccccc2n1,7%,-0.93
COCCc1cc(NC(=O)Nc2sc(-c3ccccc3)nc2C)n(C)n1,38%,-4.35
O=C1C[C@H](NC(=O)c2ccccn2)CN1,-6%,1.1
Cc1nn(C)c(C)c1C(=O)Nc1ccc(OC2CCC2)c(F)c1,-7%,0.57
CC(C)c1noc(-c2ccnc(N3CCC[C@](CO)(c4ccccc4)C3)c2)n1,-7%,0.71
CCC[C@H](C)c1cn(CCc2nc3ccccc3c(=O)[nH]2)nn1,-11%,2.2
O=C(O)C[C@@H]1CCN(CC2CCCCC2)C[C@@H]1Cc1nc2ccccc2[nH]1,-8%,1.16
CCc1ccc2nc(C)cc(C(=O)N3CCC(CCC(=O)NC4CC4)CC3)c2c1,-2%,0.26
